{
  "source": "ChEMBL document CHEMBL4888484",
  "about": "“Replenishing the malaria drug discovery pipeline: Screening and hit evaluation of the MMV Hit Generation Library 1 (HGL1) against asexual blood stage Plasmodium falciparum ,using a nano luciferase reporter read-out” (2022)",
  "note": "Hit rate of the full screen: of about 150,000 compounds, about 540 (0.36%) showed an effect of 50% or more. Some of the results follow.",
  "data": [
    {"tested_on": "Plasmodium falciparum", "test": "Primary screen in NF54 nanoGlo assay, in single point, at 2uM, 72h; a lower Z score goes with more inhibition", "type": "functional, Erythrocyte", "conditions": "timepoint 72 hour", "units": {"% Inhibition": "%"}, "values": [
      {"compound": "CCn1cc(CNC(=O)NC[C@H](O)c2ccc(OC)c(OC)c2)cn1", "% Inhibition": -12, "Z score": 1.13},
      {"compound": "Cc1nc(CNC(=O)C[C@H](O)c2cc(Cl)cc(Cl)c2)oc1C", "% Inhibition": -6, "Z score": 0.75},
      {"compound": "O=C(N[C@H]1C[C@@H](c2cc(=O)[nH]c(N3CCCC3)n2)C1)c1cn[nH]c1", "% Inhibition": -8, "Z score": 0.92},
      {"compound": "Cc1noc(-c2nn(C)c3c2CN(S(=O)(=O)c2cccc(Cl)c2)CC3)n1", "% Inhibition": -12, "Z score": 1.35},
      {"compound": "O=C(NCc1cc(F)cc(F)c1)c1ccc(CN2CCCCC2=O)cc1", "% Inhibition": -5, "Z score": 0.8},
      {"compound": "COc1ccc(C)cc1S(=O)(=O)N1CCN(C2CCOCC2)C[C@H]1C", "% Inhibition": 7, "Z score": -0.94},
      {"compound": "COc1cccc(N(CC(=O)Nc2cccc(F)c2)CC(=O)Nc2cccc(F)c2)c1", "% Inhibition": -14, "Z score": 1.64},
      {"compound": "Fc1ccc(F)c(CN2CCN(Cc3cnccn3)CC2)c1", "% Inhibition": -10, "Z score": 1.26},
      {"compound": "Cc1cc(-c2c(-c3ccccc3)ncn2Cc2cc3ccccc3[nH]2)[nH]n1", "% Inhibition": -3, "Z score": 0.33},
      {"compound": "CN(CCc1ncc(Br)cn1)C(=O)CCc1ccco1", "% Inhibition": -6, "Z score": 0.66},
      {"compound": "Cc1cc(C(=O)N2CCC(NC(=O)C3CCC3)CC2)c(C)n1C1CC1", "% Inhibition": -5, "Z score": 0.49},
      {"compound": "CCOc1ncccc1NC(=O)CCCn1cncn1", "% Inhibition": -2, "Z score": 0.45},
      {"compound": "COc1ccc(NC(=O)COc2c(O)ccnc2C)cc1", "% Inhibition": 1, "Z score": -0.07},
      {"compound": "Cc1ccc(-n2nc(-c3ccccc3F)cc2-c2ccccc2F)cc1Cl", "% Inhibition": 34, "Z score": -3.88},
      {"compound": "CS(=O)(=O)c1ccc(-c2cncc3ccccc23)cc1", "% Inhibition": -13, "Z score": 2.53},
      {"compound": "Cc1cnc(C2CC2)n1CC1CCN(C(=O)c2ccc3cc[nH]c3c2)CC1", "% Inhibition": 12, "Z score": -1.64},
      {"compound": "COCCS(=O)(=O)N[C@@H](Cc1ccccc1)C1CC1", "% Inhibition": -9, "Z score": 1.16},
      {"compound": "C[C@@H](Cc1ccsc1)N1CCC(C(=O)Nc2ccccc2O)CC1", "% Inhibition": 32, "Z score": -3.67},
      {"compound": "Cn1cncc1CNCCOc1ccc2c(c1)OCO2", "% Inhibition": -10, "Z score": 1.35},
      {"compound": "Cn1cc(-c2nc3cc(C(=O)O)ccc3[nH]2)c(-c2ccc3c(c2)OCCO3)n1", "% Inhibition": -6, "Z score": 0.74},
      {"compound": "COC(=O)[C@@H](O)C(C)(C)NCc1ccc(Cl)c(F)c1", "% Inhibition": -10, "Z score": 1.49},
      {"compound": "O=C(O)C1(C(=O)NCC2CCN(CC3CC3)CC2)CCCCCC1", "% Inhibition": -5, "Z score": 0.65},
      {"compound": "c1csc(Cc2n[nH]c3c2CN(C2CCC2)CC3)c1", "% Inhibition": -3, "Z score": 0.44},
      {"compound": "CCN(C(C)=O)c1nc(COc2ccccc2C(N)=O)cs1", "% Inhibition": -17, "Z score": 1.56},
      {"compound": "Cc1ccc(NC(=O)N2C[C@@H]3C[C@H](NS(=O)(=O)c4ccccc4)[C@H]2C3)c(C)c1", "% Inhibition": 26, "Z score": -3},
      {"compound": "CC(C)NC(=O)N[C@@H]1CC[C@H]2CCOc3ccccc3C(=O)N3CCN(C4CCOCC4)C[C@H]3C(=O)NC[C@H]1O2", "% Inhibition": -1, "Z score": 0.18},
      {"compound": "Cn1c(C(=O)N2C[C@H](C3CC3)[C@@H](N)C2)cc2cc(F)ccc21", "% Inhibition": -4, "Z score": 0.53},
      {"compound": "CC(C)=CCC[C@H](C)N1CCC(=O)N(Cc2cc3c(cc2Cl)OCO3)CC1", "% Inhibition": -10, "Z score": 1.81},
      {"compound": "NC[C@H]1CN(C(=O)c2ccc3c(c2O)CCCC3)CCO1", "% Inhibition": -3, "Z score": 0.61},
      {"compound": "COc1ccc(Cn2c(C)c(C)c(S(=O)(=O)c3ccccc3)c2N)cc1", "% Inhibition": -9, "Z score": 1.16},
      {"compound": "C[C@@H](Cc1ccc(Br)cc1)C(=O)NCc1ncnn1C", "% Inhibition": 25, "Z score": -2.82},
      {"compound": "O=C(CCc1ccccc1)Nc1ccc2c(c1)OCCO2", "% Inhibition": -3, "Z score": 0.42},
      {"compound": "CC1CCC(OC(=O)c2cnn(C)c2)C1", "note": "(centres undefined)", "% Inhibition": 0, "Z score": 0.04},
      {"compound": "COc1cc(C)ccc1C(=O)N1CCC([C@H](C)N2CCN(C)CC2)CC1", "% Inhibition": -8, "Z score": 1.54},
      {"compound": "CCn1cc(C(=O)NC(c2ccccc2C)c2ccccc2C)nn1", "% Inhibition": 0, "Z score": -0.01},
      {"compound": "Cc1nnc(O)nc1NCc1ccccc1Cl", "% Inhibition": -10, "Z score": 1.42},
      {"compound": "COCC1(c2noc(C[C@H]3CNCCS3(=O)=O)n2)CCCCC1", "% Inhibition": -3, "Z score": 0.6},
      {"compound": "CCc1nsc(N2C[C@@H]3OC(=O)N(C4CCN(C(C)C)CC4)[C@@H]3C2)n1", "% Inhibition": -2, "Z score": 0.44},
      {"compound": "CCC(C)N[C@H]1CS(=O)(=O)C[C@@H]1S(=O)(=O)c1ccccc1", "note": "(some centres undefined)", "% Inhibition": 13, "Z score": -1.48},
      {"compound": "O=S(=O)(CC1CCCCC1)NCc1ccc2c(c1)OCO2", "% Inhibition": 7, "Z score": -0.92},
      {"compound": "COCc1noc(C[C@H]2CCOC3(CCN(C(=O)C(C)C)CC3)C2)n1", "% Inhibition": 5, "Z score": -0.61},
      {"compound": "COc1ccc(Cc2nc(-c3ccc4c(c3)OCCO4)cs2)cc1OC", "% Inhibition": 1, "Z score": -0.14}
    ]}
  ]
}
